{"source": "PubChem BioAssay AID1345082", "about": "(National Center for Advancing Translational Sciences (NCATS), 2018)", "note": "Several values for one entry are separate records, joined by “and”; a condition that tells them apart may be missing. Equal values may be shown once. About 4,000 (4.3%) of roughly 94,000 compounds were called active. The inconclusive results got no clear call from the source; some entries with a clear call stand among them for comparison. Calls follow the shape of the dose curve; as a rule, active = well fitted inhibition curve with a large enough effect; inconclusive = small, poorly fitted or top-dose-only effect; inactive = no such curve, though single readings can be large or run the other way. Potencies beside an inconclusive call are fits to weak or partial responses and may not hold up.", "data": [{"assay": "Cytotoxic Profiling in NIH 3T3 Cell Line of Diverse Libraries Using Quantitative High-Throughput Screening; also: nearly all actives have a fitted effect of over 55% in size; also: potency is read from the fitted curve at half-maximal effect; tags tell the direction and shape of the fitted curve; as to activity change, negative = cytotoxicity: % is scaled to controls: 0 for no effect and ±100 for the full control effect", "settings": "NIH 3T3 viability, CellTiter-Glo ATP luminescence, 48-72 h; activity change, negative = cytotoxicity: at 96.7 µM (top of the series); series mostly up to 96.7 µM", "in_short": "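Cytotoxicity was measured by CellTiter-Glo ATP luminescence after 48 or 72 h compound exposure at 37 °C. Mouse NIH 3T3 fibroblasts were seeded at 400 cells/well and dosed by 23 nL pin transfer.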", "values": [{"molecule": "COc1cc(CN2CCN(c3ncccc3C#N)CC2CCO)cc(OC)c1", "note": "(stereo unspecified)", "Potency": "inconclusive: 39.8 µM [inhibitor, full curve, poor fit]"}, {"molecule": "COc1cccc(-c2ccc(C(=O)N3CCC(NC(C)=O)CC3)cc2)c1", "Potency": "inactive and inconclusive: 50.1 µM [inhibitor, partial curve, poor fit]"}, {"molecule": "CN1c2cc(C(=O)Nc3cccc(OC(F)(F)F)c3)ccc2C(=O)N2CCCC21", "note": "(stereo unspecified)", "Potency": "active: 35.5 µM"}, {"molecule": "COCC(=O)N1CCCC1C(=O)N1CCC(N2Cc3cccn3C2=O)CC1", "note": "(stereo unspecified)", "activity change, negative = cytotoxicity": "inactive: -14.4%"}, {"molecule": "COCCCNc1ccc2nnc(-c3ccc(C)cn3)n2n1", "Potency": "active: 89.1 µM"}, {"molecule": "CN1CCCCCC(O)c2cc(C(=O)NCCc3ccccn3)ccc21", "note": "(stereo unspecified)", "Potency": "active: 31.6 µM"}, {"molecule": "Cc1nc(NC2CCCCC2)ncc1C(=O)O", "activity change, negative = cytotoxicity": "inactive: -15.7%"}, {"molecule": "CC1=C[C@@H](CN(C)CCc2ccccn2)[C@H](C(C)C)C[C@H]1Cc1nnc(-c2ccccc2F)o1", "Potency": "active: 35.5 µM"}, {"molecule": "Cc1cc(-c2cc3c(cn2)CN(Cc2c[nH]c4ccccc24)CCN3)ccn1", "Potency": "inconclusive: 112 µM [inhibitor, single point]"}, {"molecule": "Cc1ccoc1C(=O)N[C@@H]1CN(c2ncccn2)C[C@H]1CO", "activity change, negative = cytotoxicity": "inactive: -0.611%"}, {"molecule": "c1cc2c(cc1N1CCC(N3CCC4(CCNCC4)C3)CC1)OCO2", "Potency": "inconclusive: 56.2 µM [inhibitor, partial curve, poor fit]"}, {"molecule": "Cc1cccc2nc(C(=O)N3CCC(n4cc(C(C)(C)O)nn4)CC3)cn12", "Potency": "inconclusive: 31.6 µM [inhibitor, full curve, poor fit]"}, {"molecule": "COc1ccc(C(=O)N2CCn3c(nn(-c4ccncc4)c3=O)C2)cc1", "Potency": "inconclusive: 44.7 µM [inhibitor, partial curve, poor fit]"}, {"molecule": "Cc1ccc(-c2nnc(C3CN(C(=O)Cc4ccccc4)CC34CCOCC4)o2)cc1", "note": "(stereo unspecified)", "activity change, negative = cytotoxicity": "inactive: -15.3%"}, {"molecule": "Fc1ccc(-c2nnc3ccc(NCC4CC4)nn23)nc1", "Potency": "inconclusive: 126 µM [inhibitor, single point]"}, {"molecule": "O=S(=O)(c1cccnc1)N1CCCC(Cn2c(C3CC3)nc3cccnc32)C1", "note": "(stereo unspecified)", "Potency": "inconclusive: 70.8 µM [inhibitor, single point]"}, {"molecule": "FC(F)(F)c1ccc2c(c1)nc1n2[C@@H](CNCc2c[nH]c3ccccc23)COC1", "Potency": "inconclusive: 100 µM [inhibitor, partial curve, poor fit]"}, {"molecule": "Cn1ncc2c(C(=O)NCc3cccs3)cc(-c3ccc(F)cc3)nc21", "Potency": "inconclusive: 12.6 µM [inhibitor, partial curve, poor fit]"}, {"molecule": "c1cc(OC2CCCCC2)ncc1-c1noc([C@@H]2CCCN2C2CCOCC2)n1", "activity change, negative = cytotoxicity": "inactive: -19% [at 138 µM]"}, {"molecule": "O=C(NC1CCCCC1)[C@@H]1Cc2nc[nH]c2CN1Cc1ccc(Cl)cc1", "Potency": "inconclusive: 126 µM [inhibitor, single point]"}, {"molecule": "CCN1c2cc(C(=O)Nc3cccc(C(F)(F)F)c3)ccc2C(=O)N2CCCCC21", "note": "(stereo unspecified)", "Potency": "inconclusive: 15.8 µM [inhibitor, full curve]"}, {"molecule": "CCOc1ccccc1NC(=O)N1CCCC(c2noc(COc3ccccc3F)n2)C1", "note": "(stereo unspecified)", "Potency": "inconclusive: 50.1 µM [inhibitor, partial curve, poor fit]"}, {"molecule": "N#Cc1ccc(CN2CCC3(CC(Cc4ccccc4)=NO3)C2)cc1", "note": "(stereo unspecified)", "Potency": "inconclusive: 50.1 µM [inhibitor, partial curve, poor fit]"}, {"molecule": "O=C(c1n[nH]c(=O)c2ccccc12)N1CCCCCC1c1nnc(-c2ccccc2)o1", "note": "(stereo unspecified)", "Potency": "inconclusive: 56.2 µM [inhibitor, partial curve, poor fit]"}, {"molecule": "CC(C)(C)c1ccc(C(=O)N2CCC(c3n[nH]c(=O)n3Cc3ccc(F)cc3)CC2)cc1", "Potency": "inconclusive: 56.2 µM [inhibitor, partial curve, poor fit]"}, {"molecule": "CCC1Oc2ccc(NC(=O)Cc3ccccc3)cc2CN(Cc2ccc3c(c2)OCO3)C1=O", "note": "(stereo unspecified)", "Potency": "inconclusive: 28.2 µM [inhibitor, full curve, poor fit]"}, {"molecule": "Cc1nn(Cc2ccccc2)c(C)c1[C@@H]1C=C[C@@H](NC(=O)Nc2cccc(C#N)c2)C1", "Potency": "inconclusive: 112 µM [inhibitor, partial curve]"}, {"molecule": "COCCn1c(CN2C(=O)N(C)C(=O)C2(C)C)nnc1C1CC(N)C1", "note": "(stereo unspecified)", "activity change, negative = cytotoxicity": "inactive: -5.22%"}, {"molecule": "Cc1ccc(C(=O)NCC2(C)CCOCC2)s1", "outcome": "inactive"}, {"molecule": "Cc1ccc2c(c1)N(CCCC(=O)N1CCC(C)(c3noc(C4CC4)n3)CC1)C(=O)CO2", "Potency": "inconclusive: 44.7 µM [inhibitor, partial curve, poor fit]"}, {"molecule": "COCCc1nncn1C1CCN(C(=O)c2cccc(OC(F)(F)F)c2)CC1", "activity change, negative = cytotoxicity": "inactive: -0.872%"}, {"molecule": "CC(=O)N1CC2(Cc3ccccc31)CN(C(=O)c1ccccc1C)C2", "Potency": "inconclusive: 89.1 µM [inhibitor, partial curve, poor fit]"}, {"molecule": "CC(=O)Nc1ccc(S(=O)(=O)N2CCC(CCC(=O)Nc3cccc(C)c3)CC2)cc1", "Potency": "inconclusive: 31.6 µM [inhibitor, partial curve]"}, {"molecule": "O=C1CO[C@H]2CCN(Cc3ccc4[nH]ccc4c3)CC[C@@H]2N1Cc1ccc(O)cc1", "activity change, negative = cytotoxicity": "inactive: -20.8% [at 138 µM]"}, {"molecule": "CN(C)c1ccc(CN[C@H]2CO[C@H]3[C@@H]2OC[C@H]3OC(=O)Nc2ccc(Oc3ccccc3)cc2)cc1", "Potency": "inconclusive: 56.2 µM [inhibitor, partial curve, poor fit]"}, {"molecule": "COc1ccccc1CNC(=O)c1cc2n(n1)CC(c1ccc3c(c1)OCO3)OC2", "note": "(stereo unspecified)", "Potency": "inconclusive: 79.4 µM [inhibitor, single point]"}, {"molecule": "Cc1nn(-c2ccccc2)c2c1C(C)N(CC1CN(C(=O)NC3CCCC3)C1)C2=O", "note": "(stereo unspecified)", "Potency": "inconclusive: 50.1 µM [inhibitor, partial curve, poor fit]"}, {"molecule": "O=C(c1ccsc1)N1CCC2(CC1)CC(N(Cc1ccc(F)cc1)C1CC1)CCO2", "note": "(stereo unspecified)", "Potency": "inconclusive: 70.8 µM [inhibitor, single point]"}, {"molecule": "O=C(C1CCCCC1)N1CCN(C2CCN(Cc3cccnc3)C2=O)CC1", "note": "(stereo unspecified)", "activity change, negative = cytotoxicity": "inactive: -31.6%"}, {"molecule": "COc1cccc(C(=O)N2CCn3c(nnc3-c3ccc(NC(C)=O)cc3)C2)c1", "activity change, negative = cytotoxicity": "inactive: -8.27%"}, {"molecule": "O=C(c1ccc2c(c1)OCO2)N1CCC(N2Cc3cccn3C2=O)CC1", "activity change, negative = cytotoxicity": "inactive: -14.6%"}]}]}
